In the RNAGym collection of RNA variant scans (doi:10.7554/elife.90254):
The source gives no read counts; variants with many changes may rest on few reads.

B1: LINE1-mini (parent)
chain: GGCAGAGCUCAACACAGCGUGGCAAAGUGGCUGUGGCUAGACUGCC

Variants of: B1
Assay: self-cleavage, relative activity (ratio to wild type); higher = more cleavage; in vitro, sequencing; the parent is a self-cleaving ribozyme

Row | Variant | self-cleavage
1 | A4G C18G A24G G29U | 0.13
2 | A4G C18G C23A A39C | 0.04
3 | A4G C18G G36A | 0.02
4 | A4G C18G G44A | 0.01
5 | A4G C18U A24U | 1.04
6 | A4G C23A A25C C37A G40U | 0.2
7 | A4G C23A U32A | 0.51
8 | A4G C23G U28G | 0.33
9 | A4G C31U C46U | 0.03
10 | A4G C37U A41U U43C | 0.12
11 | A4G C42G G44U | 0.04
12 | A4G C42U C46A | 0.02
13 | A4G G5A A6C U9C G19U C31G | 0.01
14 | A4G G5A A24U G29U | 0.03
15 | A4G G5A A41C | 0.07
16 | A4G G5A C42U | 0.45
17 | A4G G5A G7A C18A | 0.05
18 | A4G G5A U28A | 0.03
19 | A4G G5C G40C | 0.12
20 | A4G G5U A14G U34A | 0.12
21 | A4G G5U A16C G22A | 0.08

Row | Variant | self-cleavage
22 | A4G G5U G17C G21C G33C | 0.05
23 | A4G G5U G17U | 0.03
24 | A4G G5U G19A C37G U38A | 0.05
25 | A4G G5U U9A C13A | 0.6
26 | A4G G7A A16G C37G G40A G44U | 0.05
27 | A4G G7A C10A A14U | 0.01
28 | A4G G7A C10U C23G C31U U43G | 0.03
29 | A4G G7A C13G G17U G21U C37G A39U | 0.01
30 | A4G G7A C15U A41U | 0.16
31 | A4G G7A G29C A39C | 0.05
32 | A4G G7A G33U C46G | 0.26
33 | A4G G7C A16C A39C A41U C46G | 0.04
34 | A4G G7C A26C | 0.11
35 | A4G G7C C8A U20A U38G A39G | 0.03
36 | A4G G7U A12C | 0.03
37 | A4G G7U A14C G29U | 0.04
38 | A4G G7U A16C U34G | 0.06
39 | A4G G7U A24C G30U | 0.03
40 | A4G G7U G36U | 0.05
41 | A4G G17A C18U G22C U34C | 0.07
42 | A4G G17A G40A | 0

Row | Variant | self-cleavage
43 | A4G G17A U28G C31U | 0.15
44 | A4G G17C A24U A41U | 0.04
45 | A4G G17C G36A U38C | 0.01
46 | A4G G17C U20C | 0.31
47 | A4G G17U A26U G27U | 0.16
48 | A4G G17U C31U | 0.07
49 | A4G G17U G40A C42G | 0.28
50 | A4G G19A G36U | 0.04
51 | A4G G19C C37A | 0
52 | A4G G19U A26C G35U | 0.04
53 | A4G G19U A41C C46G | 0.04
54 | A4G G19U C42U G44C | 0.11
55 | A4G G19U G29C G44C C45A | 0.02
56 | A4G G21A G27U U28G G36C | 0.02
57 | A4G G21C A25U G27C U32A C42G | 0.01
58 | A4G G21C G29U | 0.27
59 | A4G G21C G36U | 0.14
60 | A4G G21U C42A | 2.27
61 | A4G G21U G30A | 0.38
62 | A4G G22A U32C | 0.22
63 | A4G G22C G27A U43A | 0.03

Row | Variant | self-cleavage
64 | A4G G22U G36A C37G | 0.01
65 | A4G G27A A39C G40C | 0.02
66 | A4G G29A G30A C46U | 1.06
67 | A4G G29A G35A C37U U43G G44A | 0.01
68 | A4G G29C C45U | 0.31
69 | A4G G29C G35C U43A | 0.04
70 | A4G G29U C37A | 0.04
71 | A4G G29U C42A G44U | 0
72 | A4G G30A A41C | 0.02
73 | A4G G30U C31A G40U | 0.51
74 | A4G G33U A39G C46G | 0.04
75 | A4G G33U G35U | 0.07
76 | A4G G36U C37U U38A | 0.04
77 | A4G G40C C46A | 0.07
78 | A4G G40U C46G | 0
79 | A4G U9A A11G C23A | 0.01
80 | A4G U9A A14U C18G G35C G44C | 0.01
81 | A4G U9A A25G G30A G36A C37G | 2.42
82 | A4G U9A C15G G27A C46G | 0.08
83 | A4G U9C C31G | 0.01
